Data taken from the supplement of paper PMC11417369.
Some of the results follow.

These sequences were tested on PfAP2-HC AP2 domain (GST-tagged) (assay: gcPBM binding intensity (ln(normalized median fluorescence intensity)); higher = stronger DNA binding).
Procedure, shortened: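 The binding buffer was 1× PBS containing 1% milk, 0.2 mg/ml BSA, 0.5% salmon testes DNA and 0.03% Triton X-100. In it, GST-tagged P. falciparum DNA-binding domains expressed in E. coli were applied for 1 h to an Agilent 4 × 180k array of primer-extended double-stranded 36-bp intergenic genomic probes plus negative controls. Binding intensity, read with Alexa488 anti-GST antibody and a 488 nm scan, is the highest Masliner-normalised natural-log median intensity across replicate spots of either probe orientation.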

Sequence	gcPBM binding intensity (ln)
TACTTTTTAGGAAAGTGTACAAGCATATAAGGAATA [XGTACX_site2834]	9.58
ATTTTTTTTTTTTTTTTTTTTTTTTTTTAATCTGGA [CACACA_negctrl_site1347]	9.04
ATATTTAACAGGTTAAAAATATAAACAAATAAATAA [CACACA_negctrl_site907]	9.69
GAGAGGATAGTTCACAGTACTCAGTAACTCTACGGA [XGTACX_site4875]	9.6
TAATAATATATTTGTAGTACACAATTTTTTATAACT [XGTACX_site3951]	9.69
CACACGCACGGACACACACACATATAAAATCTATAT [CACACA_site6428]	11.1
TGTTATTAAAATATAGTGCATAATTAACCATTATAA [GTGCAC_site9594]	9.5
TACTTATATACACATGTATATTATATATATAATATA [XGTACX_negctrl_site335]	9.66
TACTATAACAGACATACACACAAAAAAAAAAAAAAA [CACACA_site538]	9.9
TCATAAATGAAACACACACACACATCTGGATACCCC [CACACA_site3332]	10.7
AATCAATATAAATAAAATTTTTAATTTTAACCCTAA [GTGCAC_negctrl_site266]	9.49
ATTATATATATAAAGTGTACAAAAAAAAAAAAAAAA [XGTACX_site3134]	9.53
AATGTCCTTATTTGCACACACACATATAAGAAATTT [CACACA_site3186]	10.1
TATAATAAATCATATGCATGTTGAAAAAAAAAAAAA [TGCATGCA_site923]	9.55
ATTTGAGAGTTAACAAAATATTTGGCCATCTTTTAT [XGTACX_negctrl_site447]	9.61
AACTCATAGCGGTGTGCACACAAAAAATTAAAAAAA [CACACA_site3033]	10.2
AAAACAAATTAAAATCGTACAATTATAATGTTAATG [XGTACX_site180]	9.7
TATAAAATAAAAATTATATATTTTAAATGGATACAA [TGCATGCA_negctrl_site284]	9.36
ATAGCTAAGATAGCTTGTACATATATTTACATATAT [XGTACX_site3694]	9.81
ATGCACATTTATAAAAGTACATGTATGTAATATGTT [XGTACX_site830]	9.76
ATTTAAATGAAAAAATGTACAAAAAGATTTAAACTC [XGTACX_site1489]	9.99
TTGTATTTACACGATCAACCAAATGGTATATAAATA [GTGCAC_negctrl_site167]	9.52

Sequence	gcPBM binding intensity (ln)
ATATGTAGTTTTTACCTAATAAAAAAAAAAAAAAAA [CACACA_negctrl_site672]	9.41
TAAACATATAAAAAGGGTACACATTAAACATAGTAT [XGTACX_site7096]	9.82
AAATCATTCCTTTATTCACACAATATCTGTATTTAT [CACACA_site4407]	9.83
ATATATAAAAATATTTGTACATATAGTTATATTTAT [XGTACX_site6114]	9.73
TTAAGCCGCAATATGGGTACATAGGAAGAAGGGGAA [XGTACX_site8397]	9.56
TTTCTTTTTCTAGTTATTTTTACTTATCCCTAATTT [TGCATGCA_negctrl_site460]	9.6
TTATAATTAAGATATAATCAATAATAACAAATGAAC [CACACA_negctrl_site1690]	9.64
TTCTTTGCTTCTGTTTCACACATTTTTAAAATAAGC [CACACA_site4741]	9.81
TTAAAGGGAATGTATACACACGTTTCTCTATGTTAT [CACACA_site4793]	9.89
GTGCGTGCGTGTACTTAACACACATAATATGTATTT [CACACA_site8336]	9.9
TAATTCCATAAGTAAACACACAAATGCCAAAATTTT [CACACA_site3205]	9.71
TCCATATGCAAACTGGTGCACAAGTAGCTTTTATAT	9.66
ATTGTCCTAAATACTACAAAGTAGATCTTTAATATT [CACACA_negctrl_site1795]	9.61
CAAAAAAGGTCCCGGAGTACATATATAATTTTTTTT [XGTACX_site458]	9.48
TATATATTGTTATATACACACATGTATATAAAAAAT [CACACA_site3221]	9.73
GAGATGACATTACACAGTACCCAGGAAATCTACGGA [XGTACX_site4931]	9.64
GGAATATGTATATTTTGTACGTATACATTTTTTGGG [XGTACX_site7681]	9.62
TTTATACAAAAAAACAAAATCAAACAAAAAAAAAAA [CACACA_negctrl_site252]	9.45
GATATATTTTATATATGTACATACAGTGGTAAATAT [XGTACX_site1324]	9.72
AAAATTATATATTTTAGTACATAAAATATTGACATA [XGTACX_site2581]	9.53
ATGTAATGTTATGTTATGTTTTTTTTTTTTTTGTGT [CACACA_negctrl_site1264]	9.74
